The data set deals with ATP. Nature of the data set: switch fluorescence ratio, 500 uM ATP over buffer (Cy3 cluster intensity, sum of 5 cycles each) (fold (ratio)); higher = stronger signal-on switching upon ATP binding; sequences stand for … in TCGTCGGCAGCGTCAGATGTGTATAAGAGACAGTTTTTTTTTTTTTTTTTTTTTTTTT…TC. The note with it: aptamer strand: ATP DNA aptamer (quencher-CACCTGGGGGAGTATTGCGGAGGAAGG + anchor), 100 nM annealed; ATP concentration: 500 uM; one replicate. In outline:
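After annealing to 100 nM quencher-labelled ATP aptamer, Cy3-labelled switching-strand clusters on a modified Illumina MiSeq flow-cell were imaged in selection buffer. A second image followed after 15 min with 500 uM ATP at 22 °C, and five such buffer/ATP cycles were done, each separated by NaOH stripping and re-annealing. The fluorescence ratio, averaged per switch-domain sequence, is summed target-cycle over summed buffer-cycle Cy3 intensity per cluster, with clusters outside 100-1000 RFU excluded.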

Values marked as one replicate rest on one cluster of the flow cell; about a third of the high ones do not repeat.
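Further: ATP exposure 15 min at 22 °C before imaging.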

Regarding CGCCATCTGA, the switch fluorescence ratio came to 0.99.

As for GACTAATGAG, the switch fluorescence ratio turned out to be 0.962.

As to ATTCTGACTT, the switch fluorescence ratio turned out to be 0.993.

As for GGTCACCC, the switch fluorescence ratio was 0.998.

With CTTATGAATT, the switch fluorescence ratio amounted to 1.04.

With CCATTTTACT, the switch fluorescence ratio was found to be 1.04.

On to TATAAGTTGC, for which the switch fluorescence ratio stood at 1.

Take GGATTGGCAT: the switch fluorescence ratio came out at 0.968.

In the case of CTAGGCTGTT, the switch fluorescence ratio was 1.

Consider TGAAGGCTCC, for which the switch fluorescence ratio came out at 1.08.

As to CTCTAGCTAA, the switch fluorescence ratio stood at 1.86.

Regarding GAGGTGTCTA, the switch fluorescence ratio was found to be 0.992.

For CTCTGGAGGA, the switch fluorescence ratio turned out to be 1.01.

ATACTGGCCA: the switch fluorescence ratio amounted to 1.04.

As for GATTGCAGCT, the switch fluorescence ratio amounted to 1.03.

Turning to ACTCGCGCG, the switch fluorescence ratio came out at 0.993.

For the sequence CTGCTATGAA, the switch fluorescence ratio worked out at 1.03.

With GGAGCGACGG, the switch fluorescence ratio was 1.05.

In the case of TGACATGCCT, the switch fluorescence ratio was 1.08.

Regarding TTCAGTTTGT, the switch fluorescence ratio was 1.03.

CAGCAAACA: the switch fluorescence ratio was determined as 1.32.

For the sequence TCATCAACGA, the switch fluorescence ratio worked out at 1.02.

On to TTTTCCTATC, for which the switch fluorescence ratio is 0.951.

With GGTGAGCCTA, the switch fluorescence ratio worked out at 1.02.

For the sequence AGTCACATTG, the switch fluorescence ratio was 0.984.

Regarding GTCATACTGC, the switch fluorescence ratio worked out at 1.06.

Turning to ACACTGATGG, the switch fluorescence ratio was 0.995.

For the sequence CCTGCTAGTT, the switch fluorescence ratio worked out at 1.04.

As for CATTCCGATG, the switch fluorescence ratio came to 1.64.

Consider TTTCTTAAGG, for which the switch fluorescence ratio is 0.974.

As to CCGGGGTTCC, the switch fluorescence ratio turned out to be 1.02.

As for GCACAGAGGC, the switch fluorescence ratio was 1.07.

For the sequence GGGCTGGGAT, the switch fluorescence ratio was 1.08.

As for CATTGAATC, the switch fluorescence ratio is 0.952.

Consider GAAAGCAAGT, for which the switch fluorescence ratio is 1.33.

As for GCAAGAATGT, the switch fluorescence ratio was determined as 1.01.

On to ATCATTGCG, for which the switch fluorescence ratio is 0.992.

For CTCGACTCTT, the switch fluorescence ratio came out at 1.03.

ACTTACGAA: the switch fluorescence ratio came to 1.33.

On to GAAAGGCCCG, for which the switch fluorescence ratio was determined as 1.05.

As for CTGCTCCATG, the switch fluorescence ratio came out at 1.03.

In the case of CGATACCGAC, the switch fluorescence ratio came out at 1.25.

As to CAATAGGATC, the switch fluorescence ratio is 1.06.

On to TATTTTCGTT, for which the switch fluorescence ratio was determined as 1.

Regarding CACTAGGACT, the switch fluorescence ratio is 1.03.

With CTAATAGATC, the switch fluorescence ratio turned out to be 1.01.

With ATATATTAAC, the switch fluorescence ratio was 0.987.

Turning to GATGATAAGG, the switch fluorescence ratio was found to be 1.02.

For TCGGTGGGAT, the switch fluorescence ratio worked out at 1.01.

In the case of ATATTT, the switch fluorescence ratio is 1.

Turning to CCATTAGGTG, the switch fluorescence ratio is 2.25.

Regarding GAAGGGCCCT, the switch fluorescence ratio is 1.03.

For CGGTACAACG, the switch fluorescence ratio is 1.03.

As to ACGTTAGAAG, the switch fluorescence ratio was found to be 1.09.

With GGTCCAACAG, the switch fluorescence ratio is 1.01.

As for CCGATAATCG, the switch fluorescence ratio is 1.12.

Turning to CAGTTGTAAT, the switch fluorescence ratio was found to be 0.992.

Take TGAGAGGTGT: the switch fluorescence ratio came to 1.04.

Take ACTCGGCAGT: the switch fluorescence ratio amounted to 4.35.

Turning to TGGGCGGTAA, the switch fluorescence ratio came to 0.976.

As for CTGTGTTCG, the switch fluorescence ratio worked out at 0.977.

With GAACTGTGGG, the switch fluorescence ratio worked out at 1.05.

Turning to AACGAGTGGT, the switch fluorescence ratio turned out to be 1.04.

As to TACTTTATGT, the switch fluorescence ratio came out at 1.03.

For the sequence TAGGTCCGCT, the switch fluorescence ratio came out at 1.07.

TGAGTCTTAG: the switch fluorescence ratio was determined as 1.01.

With GCTAATCGGA, the switch fluorescence ratio is 0.96.

On to CACAGCCCCT, for which the switch fluorescence ratio was determined as 1.01.

On to GGTTCAGACC, for which the switch fluorescence ratio stood at 1.03.

Consider TACTCGATGG, for which the switch fluorescence ratio came out at 0.987.

As to GTTTAACGGC, the switch fluorescence ratio amounted to 1.05.

As to TTTACTGA, the switch fluorescence ratio was found to be 1.03.

As to GAGGTCTATG, the switch fluorescence ratio came to 1.02.

For the sequence AACTAGACGC, the switch fluorescence ratio is 1.19.

Consider GCAGGGATCC, for which the switch fluorescence ratio was found to be 1.02.

Consider TATGAGTTGA, for which the switch fluorescence ratio was determined as 1.02.

As to GGGCTCGACT, the switch fluorescence ratio stood at 1.01.

Consider CACAAGGTAA, for which the switch fluorescence ratio was 1.02.

Consider AACGGAGGAT, for which the switch fluorescence ratio was 1.15.

Take TTGGTCACGC: the switch fluorescence ratio stood at 0.972.

Turning to TCCATATACG, the switch fluorescence ratio stood at 1.1.

Regarding ATTTGTAAAC, the switch fluorescence ratio came to 1.01.

For CACGCGAGTT, the switch fluorescence ratio stood at 1.04.

GGCGTAAAGC: the switch fluorescence ratio is 1.04.

With ACTAAAGTTC, the switch fluorescence ratio is 1.02.

TTGCAGGCTA: the switch fluorescence ratio was determined as 1.02.

In the case of AGCGCAAGGA, the switch fluorescence ratio was 2.28.

GGGGGCATTC: the switch fluorescence ratio was 1.03.

As to CGTAATAGGA, the switch fluorescence ratio is 1.56.

As for ATCGCTGCCG, the switch fluorescence ratio turned out to be 0.966.

As to CGTGCGAGCG, the switch fluorescence ratio is 0.943.

Turning to TGCGGACCTG, the switch fluorescence ratio came to 1.06.

As for CTAATTGAAG, the switch fluorescence ratio was 0.946.

In the case of GTAAGAGGGA, the switch fluorescence ratio was 0.979.

Consider AATCCTTCG, for which the switch fluorescence ratio came out at 1.29.

Consider GAGGCTGAG, for which the switch fluorescence ratio worked out at 0.927.

On to TCTGCAGCCA, for which the switch fluorescence ratio was found to be 2.44.

For CGTCGAGCCA, the switch fluorescence ratio turned out to be 0.965.

Regarding GGTGATCGGT, the switch fluorescence ratio was 0.949.

For the sequence TAAATCCTAG, the switch fluorescence ratio turned out to be 1.04.

For GGACGACTGT, the switch fluorescence ratio was 1.

Regarding AACAGGAGCC, the switch fluorescence ratio came to 0.972.

Consider AAAATTTCG, for which the switch fluorescence ratio was 0.997.

With TCGTTATTTC, the switch fluorescence ratio stood at 1.04.

In the case of TAGACGCAAG, the switch fluorescence ratio turned out to be 1.03.

On to TTCTGTAAAT, for which the switch fluorescence ratio stood at 1.19.

Consider ATCTTTCTTT, for which the switch fluorescence ratio was determined as 0.96.

On to GTAAAGACGT, for which the switch fluorescence ratio was determined as 1.63.

Take TGTAAATTGG: the switch fluorescence ratio was 1.05.

Regarding ACGGCTACGT, the switch fluorescence ratio was 0.999.

For GGAAAATGGT, the switch fluorescence ratio turned out to be 0.987.

TTCTAAAGA: the switch fluorescence ratio worked out at 1.03.

Regarding ATAAAGGGTA, the switch fluorescence ratio worked out at 1.03.

As for CTAGCCTCGG, the switch fluorescence ratio stood at 0.979.

As for GCACCAAGCT, the switch fluorescence ratio turned out to be 1.04.

Take GTCACATCAT: the switch fluorescence ratio is 1.02.

CGACAGATCC: the switch fluorescence ratio came to 1.07.

Take TCCGGGCGTG: the switch fluorescence ratio turned out to be 1.03.

Take GGTCAATGGC: the switch fluorescence ratio is 1.09.

Consider GGCTGAACTG, for which the switch fluorescence ratio amounted to 1.06.

Values taken from the supplement of paper PMC10126150.
